{"source": "the supplement of paper PMC11417369", "note": "± gives the standard deviation of the averaged measurements. The list shows a part of the results."}
{"tested_on": "PfAP2-EXP AP2 domain (GST-tagged)", "assay": "gcPBM binding intensity (ln(normalized median fluorescence intensity)); higher = stronger DNA binding", "summary_of_the_method": "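Probes on an Agilent 4 × 180k array were primer-extended, double-stranded and 36 bp long, taken from intergenic genomic regions, with negative controls added. GST-tagged P. falciparum DNA-binding domains from E. coli, about 25 μg on average, were applied to the array for 1 h in 1× PBS containing 1% milk, 0.2 mg/ml BSA, 0.5% salmon testes DNA and 0.03% Triton X-100. Binding intensity, obtained after Alexa488 anti-GST antibody detection and a 488 nm scan, is the highest Masliner-normalised natural-log median intensity across replicate spots of either probe orientation.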"}
{"sequence": "TAAATATTTAAATATTGTACTAGGTATAATTGAATA [XGTACX_site3604]", "gcPBM binding intensity (ln)": "8.38 ± 0.47"}
{"sequence": "TTATTGTACTTGCTCGCATGCAATAAAAATATATTA [TGCATGCA_site580]", "gcPBM binding intensity (ln)": "9.38 ± 0.23"}
{"sequence": "GGCATGACTATCTGCACACATAAAAATAAGAAATAC [CACACA_site841]", "gcPBM binding intensity (ln)": "8.87 ± 0.4"}
{"sequence": "GATTTATACAAATATGTACACACTAATTATATATTA [CACACA_site8045]", "gcPBM binding intensity (ln)": "8.73 ± 0.28"}
{"sequence": "ATAAACAGAAAAAAAAAAAAAAAAAAAAAAAAAAAA [CACACA_negctrl_site143]", "gcPBM binding intensity (ln)": "7.98 ± 0.4"}
{"sequence": "TTTTTTTTCTCACAAAAAATAATTAACAAAAAGGAA [XGTACX_negctrl_site154]", "gcPBM binding intensity (ln)": "8.55 ± 0.27"}
{"sequence": "TTTATATGGATTTTTTTTTAATATTTCTTTTAATTT [TGCATGCA_negctrl_site361]", "gcPBM binding intensity (ln)": "8.21 ± 0.4"}
{"sequence": "ATAAAAAAAAAAAATACACACATATATTTATTTATA [CACACA_site6903]", "gcPBM binding intensity (ln)": "7.96 ± 0.42"}
{"sequence": "ATATGCTATTTACTAGTGCAAAATATTTAAAATATG [GTGCAC_site9517]", "gcPBM binding intensity (ln)": "8.76 ± 0.16"}
{"sequence": "TAAAAAAAAAAAAAAAGTACAAAAAAAATATTTTTT [XGTACX_site7941]", "gcPBM binding intensity (ln)": "8.48 ± 0.4"}
{"sequence": "GTTGCACAATGTTACACACACAATATAGATCGTTAA [CACACA_site6717]", "gcPBM binding intensity (ln)": "8.62 ± 0.42"}
{"sequence": "TTAATATAAGCAAATACACACACACCGATATATATA [CACACA_site9269]", "gcPBM binding intensity (ln)": "8.91 ± 0.36"}
{"sequence": "TATCATATTTTTATATGTACATAACATAAAAAAAAA [XGTACX_site2152]", "gcPBM binding intensity (ln)": "8.29 ± 0.43"}
{"sequence": "AACAGACAAAGACACACACACATACATACATACATA [CACACA_site6351]", "gcPBM binding intensity (ln)": "8.72 ± 0.38"}
{"sequence": "TGATTTGTGCCGATTTGTACACATTTATATATATAT [XGTACX_site2154]", "gcPBM binding intensity (ln)": "9.58 ± 0.17"}
{"sequence": "ATTTTTTCATATTCTACACACGTGAACAAATGAGTC [CACACA_site5635]", "gcPBM binding intensity (ln)": "8.74 ± 0.42"}
{"sequence": "TACATACATACATACACACACATATATATATATATA [CACACA_site1944]", "gcPBM binding intensity (ln)": "10.2 ± 0.29"}
{"sequence": "TCACATATATATTAATGTACATATATTTTTTATGTA [XGTACX_site5125]", "gcPBM binding intensity (ln)": "8.41 ± 0.35"}
{"sequence": "GATATATCCTATGTTATTTTTATGGTGTAATTTAGT [XGTACX_negctrl_site112]", "gcPBM binding intensity (ln)": "8.81 ± 0.29"}
{"sequence": "CAATGTTAACATATTACACACATATGTATATATAAT [CACACA_site8878]", "gcPBM binding intensity (ln)": "8.58 ± 0.55"}
{"sequence": "GACAACTCTTTTCATACACACAAAAAAAAAAAAATA [CACACA_site2361]", "gcPBM binding intensity (ln)": "8.33 ± 0.52"}
{"sequence": "AGAAAGAAAATATATACACACAAAAAAAAATATATA [CACACA_site1412]", "gcPBM binding intensity (ln)": "8.7 ± 0.47"}
{"sequence": "TTTTTTTTATGTATCACACATAATTTTTTATTATGA [CACACA_site5534]", "gcPBM binding intensity (ln)": "8.51 ± 0.35"}
{"sequence": "ATAATAACAAGGCGCTGTACTGTACCGTTTTTCATA [XGTACX_site6135]", "gcPBM binding intensity (ln)": "8.94 ± 0.4"}
{"sequence": "CATCCACAAATATGTACACACATATATAAATATGTA [CACACA_site7407]", "gcPBM binding intensity (ln)": "8.45 ± 0.35"}
{"sequence": "TGCTCTAATTTATATACACACAAATATGTACACATA [CACACA_site7845]", "gcPBM binding intensity (ln)": "8.61 ± 0.4"}
{"sequence": "TAATTTTTTTAAGAGAGTACATGACTCAACAGTTTA [XGTACX_site3103]", "gcPBM binding intensity (ln)": "8.26 ± 0.44"}
{"sequence": "TTTCATAAATAATAAAATAAAATATGAAGCAAAAGG [CACACA_negctrl_site1767]", "gcPBM binding intensity (ln)": "8.7 ± 0.42"}
{"sequence": "TTTTTTTTTTTTTGGAGTACATGTTTATAACATAAT [XGTACX_site1799]", "gcPBM binding intensity (ln)": "8.4 ± 0.4"}
{"sequence": "TTATATCCAACTTGAAAAAAGGTATATGTTTATATA [CACACA_negctrl_site1746]", "gcPBM binding intensity (ln)": "8.21 ± 0.41"}
{"sequence": "GAAATATTACAAAGTACATGCAACGAAAATTTCAGT [TGCATGCA_site608]", "gcPBM binding intensity (ln)": "9.12 ± 0.34"}
{"sequence": "GATAATACATAAATTTATAAGTGGAAGAATAAATAA [CACACA_negctrl_site698]", "gcPBM binding intensity (ln)": "8.99 ± 0.37"}
{"sequence": "ACAAACAAATAAATATGTACGAATAAATAAAATTTT [XGTACX_site4664]", "gcPBM binding intensity (ln)": "8.58 ± 0.31"}
{"sequence": "TTTTTTTTCAAAAATACAAAAAAAAAAGAAAAAAAC [CACACA_negctrl_site625]", "gcPBM binding intensity (ln)": "8.72 ± 0.44"}
{"sequence": "CTTTTAGAATAATCAGTGCAAAAAAAAAAAAAAAAA", "gcPBM binding intensity (ln)": "8.325 ± 0.049"}
{"sequence": "ATGTGTTTCTTCAATTGTACTAAAAGGTATATATTG [XGTACX_site4608]", "gcPBM binding intensity (ln)": "8.84 ± 0.47"}
{"sequence": "TTATTCTAAAAATATACACACAACAACAAACAAACA [CACACA_site1543]", "gcPBM binding intensity (ln)": "9.04 ± 0.39"}
{"sequence": "ATTATTTAAATTTAACGTACGGAATAAGACATAGAT [XGTACX_site8622]", "gcPBM binding intensity (ln)": "9.26 ± 0.49"}
{"sequence": "ATACTATAATATAAAACACACATATGTACCTTCTAA [CACACA_site7323]", "gcPBM binding intensity (ln)": "8.5 ± 0.42"}
{"sequence": "TATATAATATATAAATGTACTTTTGTCTTATATGAA [XGTACX_site7211]", "gcPBM binding intensity (ln)": "8.35 ± 0.43"}
{"sequence": "TAGTAACTTGTATTCACACAAATTATATTATATTAC [CACACA_site5041]", "gcPBM binding intensity (ln)": "8.58 ± 0.4"}
{"sequence": "AATCATTAAAGCATAATGTTTATGATCAATATGAAA [CACACA_negctrl_site887]", "gcPBM binding intensity (ln)": "8.27 ± 0.33"}
{"sequence": "TTTTTTTTTTTTTTTTTTTTACAGAAAAATATTAAA [CACACA_negctrl_site128]", "gcPBM binding intensity (ln)": "8.02 ± 0.47"}
{"sequence": "TTCAGGTAATAACATTGTACATGTGTATCATAATTA [XGTACX_site6740]", "gcPBM binding intensity (ln)": "8.55 ± 0.35"}
{"sequence": "TACACCCACATATATATACACACTTTTATTTAAATA [CACACA_site1596]", "gcPBM binding intensity (ln)": "8.7 ± 0.38"}
{"sequence": "AATATATATATATGTGCACACATATATAATATGTAT [CACACA_site716]", "gcPBM binding intensity (ln)": "8.53 ± 0.28"}
{"sequence": "AAAAAAAATAATGTTGCACACAACAACAAACAAAAA [CACACA_site3290]", "gcPBM binding intensity (ln)": "8.57 ± 0.54"}
{"sequence": "CAATATGGAAAATAAAGTACGCACACAAAAATTCTC [XGTACX_site4793]", "gcPBM binding intensity (ln)": "8.94 ± 0.4"}
{"sequence": "TAGATAAAATGAACATGTACTCATCTTAATATATAT [XGTACX_site34]", "gcPBM binding intensity (ln)": "8.38 ± 0.31"}
{"sequence": "TCATTATATACAATATGTACATATATGTAATAAACA [XGTACX_site4611]", "gcPBM binding intensity (ln)": "8.52 ± 0.38"}
{"sequence": "AAAGGATATGCTTCATATATATATTGTTATATATGT [CACACA_negctrl_site1672]", "gcPBM binding intensity (ln)": "8.17 ± 0.4"}
{"sequence": "AGCACACGCAGACACACACACACACGCACACGCACA [CACACA_site6306]", "gcPBM binding intensity (ln)": "8.46 ± 0.42"}
{"sequence": "AGAAAGAAAGAATACACACACACATATATATATATC [CACACA_site3744]", "gcPBM binding intensity (ln)": "8.86 ± 0.32"}
{"sequence": "AAAGAATTCATTATTTGTACTTAAATAAATAAATAA [XGTACX_site5932]", "gcPBM binding intensity (ln)": "8.27 ± 0.26"}
{"sequence": "ATAACACAAAAAGGGGGTACAATAAAAAAAAAAAAA [XGTACX_site1652]", "gcPBM binding intensity (ln)": "8.94 ± 0.15"}
{"sequence": "AATACCTATAATACAACACACAAGTAATATAAACCT [CACACA_site7661]", "gcPBM binding intensity (ln)": "8.8 ± 0.68"}
